# The list shows a part of the results.
# B1: MGL6A (Homo sapiens) (protein)
# chain: MTRTYENFQYLENKVKVQGFKNGPLPLQSLLQRLCSGPCHLLLSLGLGLLLLVIICVVGFQNSKFQRDLVTLRTDFSNFTSNTVAEIQALTSQGSSLEETIASLKAEVEGFKQERQAVHSEMLLRVQQLVQDLKKLTCQVATLNNNGEEASTEGTCCPVNWVEHQDSCYWFSHSGMSWAEAEKYCQLKNAHLVVINSREEQNFVQKYLGSAYTWMGLSDPEGAWKWVDGTDYATGFQNWKPGQPDDWQGHGLGGGEDCAHFHPDGRWNDDVCQRPYHWVCEAGLGQTSQESH
# Assays:
# Experiment in all cases: glycan array binding signal (z-score within array); higher = stronger binding
# Conditions in all cases: glycan notation: IUPAC condensed, linker removed
# [1] = target: Fuc(a1-3)[Gal3S(b1-4)]Glc
# Summary of the method: (§1)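 From the Consortium for Functional Glycomics database, 3228 arrays were curated, keeping only those whose protein sequence was available. Binding is given as a within-array Z-score averaged across arrays sharing a protein sequence and across linkers. Negative Z-scores can be read as non-binding.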
# [2] = target: Fuc(a1-3)[Gal3S(b1-4)]Glc6S
# Summary of the method: as §1
# [3] = target: Fuc(a1-3)[Gal3S(b1-4)]GlcNAc
# Summary of the method: as §1
# [4] = target: Fuc(a1-3)[Gal3S(b1-4)]GlcNAc6S
# Summary of the method: as §1
# [5] = target: Fuc(a1-3)[GalNAc(b1-4)]GlcNAc
# Summary of the method: as §1
# [6] = target: Fuc(a1-3)[GalNAc(b1-4)]GlcNAc6S
# Summary of the method: as §1
# [7] = target: Fuc(a1-3)[Neu5Ac(a2-3)]Gal(b1-4)GlcNAc(b1-3)GalNAc
# Summary of the method: as §1
# Fuc(a1-4)GlcNAc = target: Fuc(a1-4)GlcNAc
# Summary of the method: as §1
# Fuc(b1-3)GlcNAc = target: Fuc(b1-3)GlcNAc
# Summary of the method: as §1
# Gal(a1-2)Gal = target: Gal(a1-2)Gal
# Summary of the method: as §1
# Gal(a1-3)Gal = target: Gal(a1-3)Gal
# Summary of the method: as §1
# Gal(a1-3)Gal(b1-3)GlcNAc = target: Gal(a1-3)Gal(b1-3)GlcNAc
# Summary of the method: as §1
# [8] = target: Gal(a1-3)Gal(b1-3)GlcNAc(b1-2)Man
# Summary of the method: as §1
# [9] = target: Gal(a1-3)Gal(b1-3)GlcNAc(b1-2)Man(a1-3)[Gal(a1-3)Gal(b1-3)GlcNAc(b1-2)Man(a1-6)]Man(b1-4)GlcNAc(b1-4)GlcNAc
# Summary of the method: as §1
# [10] = target: Gal(a1-3)Gal(b1-3)GlcNAc(b1-3)GalNAc
# Summary of the method: as §1
# [11] = target: Gal(a1-3)Gal(b1-3)GlcNAc(b1-6)GalNAc
# Summary of the method: as §1
# [12] = target: Gal(a1-3)Gal(b1-3)[Fuc(a1-4)]GlcNAc(b1-2)Man(a1-3)[Gal(a1-3)Gal(b1-3)[Fuc(a1-4)]GlcNAc(b1-2)Man(a1-6)]Man(b1-4)GlcNAc(b1-4)GlcNAc
# Summary of the method: as §1
# Gal(a1-3)Gal(b1-4)Glc = target: Gal(a1-3)Gal(b1-4)Glc
# Summary of the method: as §1
# Gal(a1-3)Gal(b1-4)GlcNAc = target: Gal(a1-3)Gal(b1-4)GlcNAc
# Summary of the method: as §1
# [13] = target: Gal(a1-3)Gal(b1-4)GlcNAc(b1-2)Man
# Summary of the method: as §1
# [14] = target: Gal(a1-3)Gal(b1-4)GlcNAc(b1-2)Man(a1-3)[Gal(a1-3)Gal(b1-4)GlcNAc(b1-2)Man(a1-6)]Man(b1-4)GlcNAc(b1-4)GlcNAc
# Summary of the method: as §1
# [15] = target: Gal(a1-3)Gal(b1-4)GlcNAc(b1-3)GalNAc
# Summary of the method: as §1
# [16] = target: Gal(a1-3)Gal(b1-4)GlcNAc(b1-6)GalNAc
# Summary of the method: as §1
# [17] = target: Gal(a1-3)Gal(b1-4)[Fuc(a1-3)]GlcNAc
# Summary of the method: as §1
# [18] = target: Gal(a1-3)Gal(b1-4)[Fuc(a1-3)]GlcNAc(b1-2)Man(a1-3)[Gal(a1-3)Gal(b1-4)[Fuc(a1-3)]GlcNAc(b1-2)Man(a1-6)]Man(b1-4)GlcNAc(b1-4)GlcNAc
# Summary of the method: as §1
# Gal(a1-3)GalNAc = target: Gal(a1-3)GalNAc
# Summary of the method: as §1
# [19] = target: Gal(a1-3)[Gal(a1-4)]Gal(b1-4)GlcNAc
# Summary of the method: as §1
# [20] = target: Gal(a1-4)Gal(b1-3)GlcNAc(b1-2)Man(a1-3)[Gal(a1-4)Gal(b1-3)GlcNAc(b1-2)Man(a1-6)]Man(b1-4)GlcNAc(b1-4)GlcNAc
# Summary of the method: as §1
# Gal(a1-4)Gal(b1-4)Glc = target: Gal(a1-4)Gal(b1-4)Glc
# Summary of the method: as §1
# Gal(a1-4)Gal(b1-4)GlcNAc = target: Gal(a1-4)Gal(b1-4)GlcNAc
# Summary of the method: as §1
# [21] = target: Gal(a1-4)Gal(b1-4)GlcNAc(b1-2)Man(a1-3)[Gal(a1-4)Gal(b1-4)GlcNAc(b1-2)Man(a1-6)]Man(b1-4)GlcNAc(b1-4)GlcNAc
# Summary of the method: as §1
# [22] = target: Gal(a1-4)Gal(b1-4)GlcNAc(b1-3)Gal(b1-4)Glc
# Summary of the method: as §1
# Gal(a1-4)GlcNAc = target: Gal(a1-4)GlcNAc
# Summary of the method: as §1
# Gal(a1-6)Glc = target: Gal(a1-6)Glc
# Summary of the method: as §1
# Gal(b1-2)Gal = target: Gal(b1-2)Gal
# Summary of the method: as §1
# Gal(b1-3)Gal = target: Gal(b1-3)Gal
# Summary of the method: as §1
# Gal(b1-3)Gal(b1-4)GlcNAc = target: Gal(b1-3)Gal(b1-4)GlcNAc
# Summary of the method: as §1
# [23] = target: Gal(b1-3)Gal(b1-4)GlcNAc(b1-2)Man(a1-3)[Gal(b1-3)Gal(b1-4)GlcNAc(b1-2)Man(a1-6)]Man(b1-4)GlcNAc(b1-4)GlcNAc
# Summary of the method: as §1
binder,measurement,setting,value
B1,glycan array binding signal (z-score),[1],-0.269
same,glycan array binding signal (z-score),[2],0.598
same,glycan array binding signal (z-score),[3],-0.364
same,glycan array binding signal (z-score),[4],-0.308
same,glycan array binding signal (z-score),[5],1.89
same,glycan array binding signal (z-score),[6],2.36
same,glycan array binding signal (z-score),[7],-0.336
same,glycan array binding signal (z-score),Fuc(a1-4)GlcNAc,-0.316
same,glycan array binding signal (z-score),Fuc(b1-3)GlcNAc,-0.263
same,glycan array binding signal (z-score),Gal(a1-2)Gal,-0.182
same,glycan array binding signal (z-score),Gal(a1-3)Gal,-0.263
same,glycan array binding signal (z-score),Gal(a1-3)Gal(b1-3)GlcNAc,-0.146
same,glycan array binding signal (z-score),[8],-0.253
same,glycan array binding signal (z-score),[9],-0.251
same,glycan array binding signal (z-score),[10],-0.279
same,glycan array binding signal (z-score),[11],4.29
same,glycan array binding signal (z-score),[12],-0.221
same,glycan array binding signal (z-score),Gal(a1-3)Gal(b1-4)Glc,-0.253
same,glycan array binding signal (z-score),Gal(a1-3)Gal(b1-4)GlcNAc,-0.256
same,glycan array binding signal (z-score),[13],-0.268
same,glycan array binding signal (z-score),[14],-0.225
same,glycan array binding signal (z-score),[15],-0.274
same,glycan array binding signal (z-score),[16],4.16
same,glycan array binding signal (z-score),[17],-0.211
same,glycan array binding signal (z-score),[18],-0.273
same,glycan array binding signal (z-score),Gal(a1-3)GalNAc,-0.223
same,glycan array binding signal (z-score),[19],-0.293
same,glycan array binding signal (z-score),[20],-0.27
same,glycan array binding signal (z-score),Gal(a1-4)Gal(b1-4)Glc,0.34
same,glycan array binding signal (z-score),Gal(a1-4)Gal(b1-4)GlcNAc,-0.271
same,glycan array binding signal (z-score),[21],-0.244
same,glycan array binding signal (z-score),[22],-0.232
same,glycan array binding signal (z-score),Gal(a1-4)GlcNAc,-0.277
same,glycan array binding signal (z-score),Gal(a1-6)Glc,-0.333
same,glycan array binding signal (z-score),Gal(b1-2)Gal,0.049
same,glycan array binding signal (z-score),Gal(b1-3)Gal,-0.228
same,glycan array binding signal (z-score),Gal(b1-3)Gal(b1-4)GlcNAc,0.278
same,glycan array binding signal (z-score),[23],-0.491
